± gives the standard deviation of the averaged measurements. The list shows a part of the results.
Tested on: OVCAR8
Assay: cell count relative to DMSO vehicle (fold change); OVCAR8 is a high-grade serous ovarian cancer line and CX-5461 an RNA polymerase I inhibitor; higher = more surviving senescent cells (less killing)
Conditions: senescence inducer: CX-5461 3 µM 48 h, then 6 d recovery (CX senescent), exposure time 24 h

| Compound | cell count (compound dose 1 µM) | cell count (compound dose 5 µM) |
| --- | --- | --- |
| CCOC(=O)C1=C(C)NC(=S)NC1c1cccc(O)c1 (stereo not drawn) [Monastrol] | 1.05 ± 0.04 | 1.14 ± 0.03 |
| Cc1ccc(C(=O)Nc2sc(Nc3ccccc3)nc2C(N)=O)cc1 | 1.15 ± 0.021 | 1.08 ± 0.011 |
| O=C(/C=C/c1ccc(O)c(O)c1)O[C@H](Cc1ccc(O)c(O)c1)C(=O)O [Rosmarinic acid] | 1.11 ± 0.4 | 1.07 ± 0.36 |
| O=C(O)CC(C(=O)O)n1c(O)c(C2=c3cc(Br)ccc3=NC2=O)sc1=S (stereo not drawn) | 1.05 ± 0.013 | 1.07 ± 0.12 |
| C=C[C@](C)(O)CC[C@@H]1[C@@]2(C)CCCC(C)(C)[C@@H]2CC[C@@]1(C)O [Sclareol] | 1.1 ± 0.14 | 1.05 ± 0.039 |
| COc1cc(CNC(=O)CCCC/C=C/C(C)C)ccc1O | 0.593 ± 0.03 | 0.521 ± 0.063 |
| C[C@]12CC[C@@H]3c4ccc(O)cc4C[C@@H](CCCCCCCCC[S+]([O-])CCCC(F)(F)C(F)(F)F)[C@H]3[C@@H]1CC[C@@H]2O (stereo partly drawn) [Fulvestrant] | 1.21 ± 0.14 | 1.22 ± 0.22 |
| COc1ccc(-c2cc(=O)c3c(O)c(OC)c(OC)cc3o2)cc1 [Salvigenin] | 1.02 ± 0.076 | 1.04 ± 0.22 |
| NC1(Cc2ccc(Cl)cc2)CCN(c2ncnc3[nH]ccc23)CC1 | 0.912 ± 0.2 | 0.5735 ± 0.00071 |
| CC(C)c1c2cc(-c3ccnc(NC4CCC(NC5CCOCC5)CC4)n3)ccc2nn1C (stereo not drawn) | 0.635 ± 0.059 | 0.57 ± 0.067 |
| CCOC(=O)C1=C(N)Oc2ccc(Br)cc2C1C(C#N)C(=O)OCC (stereo not drawn) | 1.16 ± 0.26 | 1.05 ± 0.15 |
| O=[N+]([O-])c1ccc(SCCCCCCO)c2nonc12 | 1.09 ± 0.13 | 0.567 ± 0.16 |
| COc1ccc(Cl)cc1NC(=O)Nc1cc(C)nc2ccccc12 | 1.11 ± 0.23 | 1.18 ± 0.11 |
| COc1ccc(/C=C/c2cc(O)cc(O[C@@H]3O[C@H](CO)[C@@H](O)[C@H](O)[C@H]3O)c2)cc1 [Desoxyrhaponticin] | 1.09 ± 0.22 | 1.14 ± 0.23 |
| O=C(/C=C/c1ccc(O)c(O)c1)O[C@@H]1C[C@@](O)(C(=O)O)C[C@@H](O)[C@@H]1O [Neochlorogenic acid] | 0.877 ± 0.095 | 0.91 ± 0.096 |
| C=C1C(=O)O[C@@H]2C[C@@]3(C)CCCC(=C)[C@@H]3C[C@H]12 [Isoalantolactone] | 1.28 ± 0.35 | 0.669 ± 0.048 |
| CC(C)[C@@H](C)[C@@H](O)[C@H](O)[C@@H](C)[C@H]1CC[C@H]2[C@@H]3COC(=O)[C@H]4C[C@H](O)[C@H](O)C[C@]4(C)[C@H]3CC[C@]12C [Epibrassinolide] | 1.22 ± 0.12 | 1.13 ± 0.1 |
| C[C@]12C=CC(=O)N[C@@H]1CC[C@@H]1[C@@H]2CC[C@]2(C)[C@@H](C(=O)Nc3cc(C(F)(F)F)ccc3C(F)(F)F)CC[C@@H]12 [Dutasteride] | 1.03 ± 0.071 | 1.07 ± 0.048 |
| O=C(Nc1ccccc1-c1cn2c(CN3CC[C@@H](O)C3)csc2n1)c1ccc2ccccc2c1 | 1.15 ± 0.19 | 1.25 ± 0.32 |

From the supplement of paper PMC12462457
